Data published in patent US8828401B2, “Cytotoxic peptides and antibody drug conjugates thereof” (Pfizer Inc., priority 2011, dated 2014).

How the values were obtained:
N87 gastric xenografts = N87 gastric xenografts with anti-Notch ADCs; type: in vivo, nude (Nu/Nu) female mice; conditions: for tumor volume (mm^3 ± SEM): vc6780 study
Method: (§1) Humanized anti-Notch antibodies, hu28 and hu75, and rat-human chimeric anti-Notch antibodies, ch28 and ch75, were conjugated to various linker-payload combinations and tested in 37622A1 non-small cell lung cancer (NSCLC), HCC2429 lung cancer, MDA-MB-468 breast cancer and N87 gastric cancer xenograft models. For each model described below the first dose was given on Day 0. The tumors were measured at least once a week and their volume was calculated with the formula: tumor volume (mm^3)=0.5×(tumor width^2)(tumor length). The mean tumor volumes (±S.E.M.) for each treatment group were calculated having a maximum of 10 animals and a minimum of 6 animals to be included.
Similar in vivo experiments were performed with the N87 gastric cancer cell line as described above. […] When the tumors reached a volume of 250 to 450 mm^3, the tumors were staged to ensure uniformity of the tumor mass among various treatment groups. The N87 gastric model was dosed intraveneously Q4dx4 with PBS vehicle, humanized anti-Notch ADCs, control huNeg-8.8 ADCs and cisplatin at the doses provided in Tables 16 and 17.

MDA-MB-468/hNotch = assay: In vitro cytotoxicity assay with anti-Notch ADCs (MTS); type: cell-based
Method: (§2) The effects of anti-Notch ADCs were assessed on 1) cell lines endogenously expressing Notch protein: HCC2429 (lung cancer), OVCAR3 (ovarian cancer) and MDA-MB-468 (breast cancer), 2) cell lines engineered to over-express Notch protein: MDA-MB-468/hNotch and U2OS/hNotch, and 3) a negative control cell line (SW900) using an MTS cellular viability indicator (Promega, Madison, Wis.). These cell lines were cultured with increasing concentrations of anti-Notch ADCs comprising humanized anti-Notch antibodies, hu28 and hu75, and rat-human chimeric anti-Notch antibodies, ch28 and ch75, conjugated to various linker-payload combinations of the present invention. As a specificity control for the anti-Notch-ADCs, non-targeted control-ADCs (huNeg8.8-ADCs or ch2H6-ADCs) were also tested on the same cell lines. After four days, viability of each culture was assessed. IC50 values were calculated by logistic non-linear regression and presented as ng Ab/mL. The drug antibody ratio (DAR) is also provided.

HCC2429 (lung cancer) = assay: as above; type: cell-based
Method: as §2

OVCAR3 (ovarian cancer) = assay: as above; type: cell-based
Method: as §2

37622A1 NSCLC xenografts = assay: 37622A1 NSCLC patient-derived xenografts with anti-Notch ADCs; type: in vivo, nude (Nu/Nu) female mice; conditions: for tumor volume (mm^3 ± SEM): 10 mg/kg Q4dx4
Method: as §1
The effects of anti-Notch ADCs were examined in immunodeficient mice on the in vivo growth of human tumor xenografts that were established from fragments of freshly resected 37622A1 NSCLC tumors obtained in accordance with appropriate consent procedures (Asterand). The 37622A1 NSCLC patient-derived xenografts were subcutaneously passaged in vivo as fragments from animal to animal in nude (Nu/Nu) female mice. When the tumors reached a volume of 150 to 300 mm^3, they were staged to ensure uniformity of the tumor size among various treatment groups. The 37622A1 NSCLC model was dosed intraveneously four times every four days (Q4dx4) with PBS vehicle, humanized anti-Notch ADCs, control huNeg-8.8 ADCs and cisplatin at the doses provided in Table 11.

[1] = first of two individual repeats
[2] = second of two individual repeats

B1: hu28-vc6780 (conjugate)
heavy: EVQLVESGGGLVQPGGSLRLSCAASGFTFRDYGMTWVRQAPGKGLEWVAYISSGSNYIYYAEAVKGRFTISRDNAKNSLYLQMNSLRAEDTAVYYCARRGPFVLDAWGQGTLVTVSS[human IgG1 constant region left out]
light: DIQMTQSPSSLSASVGDRVTITCKASQSINRYLHWYQQKPGKAPKLLIYNANGLQTGVPSRFSGSGSGTDFTLTISSLQPEDFATYYCLQHNTWPDTFGGGTKVEIKRTVAAPSVFIFPPSDEQLKSGTASVVCLLNNFYPREAKVQWKVDNALQSGNSQESVTEQDSKDSTYSLSSTLTLSKADYEKHKVYACEVTHQGLSSPVTKSFNRGEC
- effect on growth of N87 gastric xenografts (in words) (N87 gastric xenografts; humanized ADCs, Q4dx4, doses of Tables 16 and 17): inhibited growth of N87 gastric xenografts in a dose-dependent manner
- tumor volume (mm^3 ± SEM) (N87 gastric xenografts; Dose 1 mg/kg Q4dx4 iv, DAY 0): 348 ± 13 mm^3
- tumor volume (mm^3 ± SEM) (N87 gastric xenografts; Dose 1 mg/kg Q4dx4 iv, DAY 4): 560 ± 26 mm^3
- tumor volume (mm^3 ± SEM) (N87 gastric xenografts; Dose 1 mg/kg Q4dx4 iv, DAY 8): 592 ± 44 mm^3
- tumor volume (mm^3 ± SEM) (N87 gastric xenografts; Dose 1 mg/kg Q4dx4 iv, DAY 11): 617 ± 48 mm^3
- tumor volume (mm^3 ± SEM) (N87 gastric xenografts; Dose 1 mg/kg Q4dx4 iv, DAY 14): 782 ± 60 mm^3
- tumor volume (mm^3 ± SEM) (N87 gastric xenografts; Dose 1 mg/kg Q4dx4 iv, DAY 18): 797 ± 88 mm^3
- tumor volume (mm^3 ± SEM) (N87 gastric xenografts; Dose 1 mg/kg Q4dx4 iv, DAY 21): 839 ± 93 mm^3
- tumor volume (mm^3 ± SEM) (N87 gastric xenografts; Dose 1 mg/kg Q4dx4 iv, DAY 25): 878 ± 105 mm^3
- tumor volume (mm^3 ± SEM) (N87 gastric xenografts; Dose 1 mg/kg Q4dx4 iv, DAY 28): 904 ± 123 mm^3
- tumor volume (mm^3 ± SEM) (N87 gastric xenografts; Dose 1 mg/kg Q4dx4 iv, DAY 33): 1043 ± 152 mm^3
- tumor volume (mm^3 ± SEM) (N87 gastric xenografts; Dose 1 mg/kg Q4dx4 iv, DAY 36): 1108 ± 185 mm^3
- tumor volume (mm^3 ± SEM) (N87 gastric xenografts; Dose 1 mg/kg Q4dx4 iv, DAY 39): 1204 ± 209 mm^3
- tumor volume (mm^3 ± SEM) (N87 gastric xenografts; Dose 3 mg/kg Q4dx4 iv, DAY 0): 349 ± 10 mm^3
- tumor volume (mm^3 ± SEM) (N87 gastric xenografts; Dose 3 mg/kg Q4dx4 iv, DAY 4): 552 ± 24 mm^3
- tumor volume (mm^3 ± SEM) (N87 gastric xenografts; Dose 3 mg/kg Q4dx4 iv, DAY 8): 545 ± 37 mm^3
- tumor volume (mm^3 ± SEM) (N87 gastric xenografts; Dose 3 mg/kg Q4dx4 iv, DAY 11): 511 ± 25 mm^3
- tumor volume (mm^3 ± SEM) (N87 gastric xenografts; Dose 3 mg/kg Q4dx4 iv, DAY 14): 564 ± 29 mm^3
- tumor volume (mm^3 ± SEM) (N87 gastric xenografts; Dose 3 mg/kg Q4dx4 iv, DAY 18): 479 ± 29 mm^3
- tumor volume (mm^3 ± SEM) (N87 gastric xenografts; Dose 3 mg/kg Q4dx4 iv, DAY 21): 499 ± 34 mm^3
- tumor volume (mm^3 ± SEM) (N87 gastric xenografts; Dose 3 mg/kg Q4dx4 iv, DAY 25): 588 ± 40 mm^3
- tumor volume (mm^3 ± SEM) (N87 gastric xenografts; Dose 3 mg/kg Q4dx4 iv, DAY 28): 672 ± 48 mm^3
- tumor volume (mm^3 ± SEM) (N87 gastric xenografts; Dose 3 mg/kg Q4dx4 iv, DAY 33): 786 ± 65 mm^3
- tumor volume (mm^3 ± SEM) (N87 gastric xenografts; Dose 3 mg/kg Q4dx4 iv, DAY 36): 827 ± 69 mm^3
- tumor volume (mm^3 ± SEM) (N87 gastric xenografts; Dose 3 mg/kg Q4dx4 iv, DAY 39): 847 ± 77 mm^3
- tumor volume (mm^3 ± SEM) (N87 gastric xenografts; Dose 3 mg/kg Q4dx4 iv, DAY 42): 959 ± 81 mm^3
- tumor volume (mm^3 ± SEM) (N87 gastric xenografts; Dose 3 mg/kg Q4dx4 iv, DAY 46): 1018 ± 94 mm^3
- tumor volume (mm^3 ± SEM) (N87 gastric xenografts; Dose 3 mg/kg Q4dx4 iv, DAY 50): 1111 ± 95 mm^3
- tumor volume (mm^3 ± SEM) (N87 gastric xenografts; Dose 3 mg/kg Q4dx4 iv, DAY 56): 1279 ± 108 mm^3
- tumor volume (mm^3 ± SEM) (N87 gastric xenografts; Dose 3 mg/kg Q4dx4 iv, DAY 63): 1368 ± 133 mm^3
- tumor volume (mm^3 ± SEM) (N87 gastric xenografts; Dose 3 mg/kg Q4dx4 iv, DAY 70): 1483 ± 154 mm^3
- tumor volume (mm^3 ± SEM) (N87 gastric xenografts; Dose 10 mg/kg Q4dx4 iv, DAY 0): 350 ± 14 mm^3
- tumor volume (mm^3 ± SEM) (N87 gastric xenografts; Dose 10 mg/kg Q4dx4 iv, DAY 4): 434 ± 24 mm^3
- tumor volume (mm^3 ± SEM) (N87 gastric xenografts; Dose 10 mg/kg Q4dx4 iv, DAY 8): 379 ± 12 mm^3
- tumor volume (mm^3 ± SEM) (N87 gastric xenografts; Dose 10 mg/kg Q4dx4 iv, DAY 11): 315 ± 18 mm^3
- tumor volume (mm^3 ± SEM) (N87 gastric xenografts; Dose 10 mg/kg Q4dx4 iv, DAY 14): 292 ± 24 mm^3
- tumor volume (mm^3 ± SEM) (N87 gastric xenografts; Dose 10 mg/kg Q4dx4 iv, DAY 18): 199 ± 18 mm^3
- tumor volume (mm^3 ± SEM) (N87 gastric xenografts; Dose 10 mg/kg Q4dx4 iv, DAY 21): 194 ± 20 mm^3
- tumor volume (mm^3 ± SEM) (N87 gastric xenografts; Dose 10 mg/kg Q4dx4 iv, DAY 25): 181 ± 21 mm^3
- tumor volume (mm^3 ± SEM) (N87 gastric xenografts; Dose 10 mg/kg Q4dx4 iv, DAY 28): 204 ± 16 mm^3
- tumor volume (mm^3 ± SEM) (N87 gastric xenografts; Dose 10 mg/kg Q4dx4 iv, DAY 33): 196 ± 27 mm^3
- tumor volume (mm^3 ± SEM) (N87 gastric xenografts; Dose 10 mg/kg Q4dx4 iv, DAY 36): 189 ± 37 mm^3
- tumor volume (mm^3 ± SEM) (N87 gastric xenografts; Dose 10 mg/kg Q4dx4 iv, DAY 39): 228 ± 44 mm^3
- tumor volume (mm^3 ± SEM) (N87 gastric xenografts; Dose 10 mg/kg Q4dx4 iv, DAY 42): 257 ± 60 mm^3
- tumor volume (mm^3 ± SEM) (N87 gastric xenografts; Dose 10 mg/kg Q4dx4 iv, DAY 46): 253 ± 59 mm^3
- tumor volume (mm^3 ± SEM) (N87 gastric xenografts; Dose 10 mg/kg Q4dx4 iv, DAY 50): 253 ± 67 mm^3
- tumor volume (mm^3 ± SEM) (N87 gastric xenografts; Dose 10 mg/kg Q4dx4 iv, DAY 56): 298 ± 85 mm^3
- tumor volume (mm^3 ± SEM) (N87 gastric xenografts; Dose 10 mg/kg Q4dx4 iv, DAY 63): 345 ± 93 mm^3
- tumor volume (mm^3 ± SEM) (N87 gastric xenografts; Dose 10 mg/kg Q4dx4 iv, DAY 70): 376 ± 117 mm^3
- tumor volume (mm^3 ± SEM) (N87 gastric xenografts; Dose 10 mg/kg Q4dx4 iv, DAY 77): 388 ± 123 mm^3
- IC50 (ng Ab/mL) (MDA-MB-468/hNotch; [1]): 1.3 ng Ab/mL
- IC50 (ng Ab/mL) (MDA-MB-468/hNotch; [2]): 3 ng Ab/mL
- IC50 (ng Ab/mL) (HCC2429 (lung cancer); [1]): 148 ng Ab/mL
- IC50 (ng Ab/mL) (HCC2429 (lung cancer); [2]): 2050 ng Ab/mL
- IC50 (ng Ab/mL) (OVCAR3 (ovarian cancer)): 17 ng Ab/mL
- tumor volume (mm^3 ± SEM) (37622A1 NSCLC xenografts; DAY 4): 176 ± 13 mm^3
- tumor volume (mm^3 ± SEM) (37622A1 NSCLC xenografts; DAY 7): 176 ± 19 mm^3
- tumor volume (mm^3 ± SEM) (37622A1 NSCLC xenografts; DAY 11): 122 ± 10 mm^3
- tumor volume (mm^3 ± SEM) (37622A1 NSCLC xenografts; DAY 14): 95 ± 7 mm^3
- tumor volume (mm^3 ± SEM) (37622A1 NSCLC xenografts; DAY 18): 65 ± 6 mm^3
- tumor volume (mm^3 ± SEM) (37622A1 NSCLC xenografts; DAY 21): 56 ± 6 mm^3
- tumor volume (mm^3 ± SEM) (37622A1 NSCLC xenografts; DAY 25): 51 ± 6 mm^3
- tumor volume (mm^3 ± SEM) (37622A1 NSCLC xenografts; DAY 28): 51 ± 8 mm^3
- tumor volume (mm^3 ± SEM) (37622A1 NSCLC xenografts; DAY 32): 72 ± 15 mm^3
- tumor volume (mm^3 ± SEM) (37622A1 NSCLC xenografts; DAY 35): 92 ± 21 mm^3
- tumor volume (mm^3 ± SEM) (37622A1 NSCLC xenografts; DAY 39): 120 ± 31 mm^3
- tumor volume (mm^3 ± SEM) (37622A1 NSCLC xenografts; DAY 42): 151 ± 37 mm^3
- tumor volume (mm^3 ± SEM) (37622A1 NSCLC xenografts; DAY 46): 172 ± 47 mm^3
- tumor volume (mm^3 ± SEM) (37622A1 NSCLC xenografts; DAY 49): 248 ± 62 mm^3
- tumor volume (mm^3 ± SEM) (37622A1 NSCLC xenografts; DAY 53): 339 ± 93 mm^3
- tumor volume (mm^3 ± SEM) (37622A1 NSCLC xenografts; DAY 56): 376 ± 100 mm^3
- tumor volume (mm^3 ± SEM) (37622A1 NSCLC xenografts; DAY 60): 503 ± 138 mm^3
- tumor volume (mm^3 ± SEM) (37622A1 NSCLC xenografts; DAY 63): 604 ± 160 mm^3
- tumor volume (mm^3 ± SEM) (37622A1 NSCLC xenografts; DAY 67): 888 ± 272 mm^3
- tumor volume (mm^3 ± SEM) (37622A1 NSCLC xenografts; DAY 70): 773 ± 235 mm^3
- tumor volume (mm^3 ± SEM) (37622A1 NSCLC xenografts; DAY 74): 881 ± 264 mm^3
- tumor volume (mm^3 ± SEM) (37622A1 NSCLC xenografts; DAY 77): 1029 ± 325 mm^3
- tumor volume (mm^3 ± SEM) (37622A1 NSCLC xenografts; DAY −1): 182 ± 16 mm^3
- effect on growth of 37622A1 NSCLC xenografts (in words) (37622A1 NSCLC xenografts; Q4dx4, doses of Table 11): inhibited growth of 37622A1 NSCLC xenografts
